According to PubChem BioAssay AID588855 (National Center for Advancing Translational Sciences (NCATS), 2011):
Values joined by “and” are separate entries in the source; they are usually repeats but may differ in a detail not shown here. Identical values can stand only once. The whole screen tested about 410,000 compounds, of which about 5,000 (1.2%) were called active. This list was built around the results that the source calls inconclusive (neither active nor inactive); the mix of calls is not that of the screen. The call rests on the fitted dose curve; in most records, active means well fitted inhibition curve with a large enough effect; inconclusive means small, poorly fitted or top-dose-only effect; inactive means no such curve, though single readings can be large or run the other way. Potencies beside an inconclusive call are fits to weak or partial responses and may not hold up.

Experiment: qHTS for Inhibitors of TGF-b; further: nearly all actives have a fitted effect of over 65% in size
Conditions: HepG2 CAGA-GFP TGF-b/SMAD3 reporter, GFP fluorescence, 18 h, TGF-beta stimulated, 500 pg/mL final; series mostly up to 46.1 µM; activity, negative = inhibition: at the top concentration
Summary of the method: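 HEPG2 CAGA-GFP cells (1000/well, DMEM with 1% FBS) were pre-incubated 2 h at 37 degrees C, given compound by pin tool, then stimulated with TGF-beta at 500 pg/mL final for 18 h before per-cell GFP fluorescence imaging.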
On the % scale 0 is the no-effect control and ±100 the full control effect; potency means the concentration at half of the fitted maximal effect; tags describe the fitted curve by direction and shape.

Question: For `CC(=O)Nc1sc(C)c(C)c1C(=O)OCC(=O)Nc1cccc(C)c1`, which Potency is on record?
Answer: inconclusive: 7.94 µM [inhibitor, partial curve]

Question: Which “activity, negative = inhibition” value does the source give for `Cc1ccc(Cn2nnc3c(=O)[nH]c(C4CCCN(C(=O)Nc5ccc(F)cc5)C4)nc32)cc1` (stereo not given) here?
Answer: inactive: 25.2%

Question: With `O=C(Nc1ccc(S(=O)(=O)N2CCCC2)cc1)C1CCN(S(=O)(=O)c2ccc(F)cc2)CC1` as the molecule, how does the “activity, negative = inhibition” value read?
Answer: inactive: -14.5%

Question: Which Potency does the source give for `CCc1cc(-c2cnnn2Cc2ccccc2)ccc1-c1cn(CC(C)C)nn1` here?
Answer: inconclusive: 31.6 µM [inhibitor, single point]

Question: With `CCC(Oc1ccccc1)C(=O)Nc1cc(C(F)(F)F)ccc1N1CCOCC1` (stereo not given) as the molecule, how does the Potency read?
Answer: inconclusive: 17.8 µM [inhibitor, single point]

Question: Which “activity, negative = inhibition” value does the source give for `CC(C)c1csc(CN2CCC(CO)(Cc3cccc(F)c3)CC2)n1` here?
Answer: inactive: 1.14%

Question: Which “activity, negative = inhibition” value does the source give for `CCN(CC)CCNC(=O)C1CCCN(c2nnc(C)c3c(C)n(-c4ccc(Cl)cc4)nc23)C1` (stereo not given) here?
Answer: inactive: -14.2%

Question: Which Potency does the source give for `Cc1ccc(-c2nnc(SCC(=O)N3CCCc4ccccc43)n2N)cc1` here?
Answer: inconclusive: 6.31 µM [inhibitor, single point]

Question: For `CCOc1ccc(NC(=O)CSc2nnc(CC)c(CC)n2)cc1`, which “activity, negative = inhibition” value is on record?
Answer: inactive: -19.7%

Question: Which “activity, negative = inhibition” value does the source give for `CCOc1ccc(-c2c(C(=O)N/N=C/c3ccc(O)cc3)nnn2-c2nonc2N)cc1` here?
Answer: inactive: 3.16%

Question: With `O=C(NC(=S)N1CCc2ccccc21)C1CCC1` as the molecule, how does the Potency read?
Answer: inconclusive: 6.31 µM [inhibitor, single point]

Question: Which Potency does the source give for `CCC1(c2ccc(F)cc2)NC(=O)N(CC(=O)NC2CCCC(C)C2C)C1=O` (stereo not given) here?
Answer: inconclusive: 15.8 µM [inhibitor, single point]

Question: With `Cc1noc(C)c1COc1ccccc1C(=O)N1CCN(S(=O)(=O)c2ccccc2Br)CC1` as the molecule, how does the Potency read?
Answer: inconclusive: 35.5 µM [inhibitor, single point]

Question: For `Cc1ccccc1C(=O)Nc1c(C(=O)N2CCN(C)CC2)cnn1-c1ccccc1`, which “activity, negative = inhibition” value is on record?
Answer: inactive: -2.26%

Question: For `N#Cc1c(NC(=O)C2CC(c3c(F)cccc3Cl)=NO2)sc2c1CCC2` (stereo not given), which Potency is on record?
Answer: inconclusive: 22.4 µM [inhibitor, single point]

Question: With `CCCCn1c(N)c(N(CCC(C)C)C(=O)CCCc2nc3ccccc3s2)c(=O)[nH]c1=O` as the molecule, how does the “activity, negative = inhibition” value read?
Answer: inactive: 6.52%

Question: For `Cc1ccc(S(=O)(=O)Nc2ccc(-n3c(C)nc4ccccc4c3=O)cc2)cc1`, which “activity, negative = inhibition” value is on record?
Answer: inactive: 0%

Question: For `COc1cccc(-n2nc(C#N)c(Cl)cc2=O)c1`, which Potency is on record?
Answer: active: 6.31 µM

Question: For `CC1(C)CC(=O)/C(=C(\O)c2ccccc2)C(=NCCc2ccccc2)C1`, which Potency is on record?
Answer: inconclusive: 35.5 µM [inhibitor, single point]

Question: With `O=C(NCc1cccs1)C1Cc2c(-c3ccc(Cl)cc3)ccnc2O1` (stereo not given) as the molecule, how does the Potency read?
Answer: inconclusive: 14.1 µM [inhibitor, single point]

Question: With `CCOc1ccc2c(c1)-c1c(ssc1=S)C(C)(C)N2C(=O)CSC1=NCCS1` as the molecule, how does the “activity, negative = inhibition” value read?
Answer: inactive: -6.85%

Question: Which “activity, negative = inhibition” value does the source give for `CCCCN1C(=O)C(O)=C(C(C)=O)C1c1ccccc1` (stereo not given) here?
Answer: inactive: -2.01%

Question: Which Potency does the source give for `CC(C)[C@H](NS(=O)(=O)c1ccccc1)C(=O)OCC(=O)N1N=C(c2ccc(Cl)cc2)CC1c1ccco1` (stereo not given in full) here?
Answer: inconclusive: 12.6 µM [inhibitor, partial curve, poor fit]

Question: Which Potency does the source give for `Fc1ccc(NC(=S)N2CCn3cccc3C2c2cccnc2)cc1` (stereo not given) here?
Answer: inconclusive: 6.31 µM [inhibitor, single point]

Question: Which Potency does the source give for `CC[C@@H]1CC2=C(C(=O)OC(C)(C)O2)[C@H](c2ccc(Cl)cc2)O1` here?
Answer: inconclusive: 0.398 µM [inhibitor, full curve, poor fit]

Question: For `CCOC(=O)c1c(NC(=O)CSc2cn(CCNC(=O)c3ccccc3F)c3ccccc23)sc2c1CCC2`, which Potency is on record?
Answer: inconclusive: 1 µM [inhibitor, full curve, poor fit]

Question: With `Nc1ccccc1C(=O)/C=C/c1ccc2c(c1)OCO2` as the molecule, how does the Potency read?
Answer: inconclusive: 22.4 µM [inhibitor, single point]

Question: With `CCN(C(=S)Nc1cccnc1)c1cccc2ccccc12` as the molecule, how does the Potency read?
Answer: inconclusive: 12.6 µM [inhibitor, partial curve]

Question: With `CCOc1ccc(NS(=O)(=O)c2ccc(NC(=S)NC(C)=O)cc2)cc1` as the molecule, how does the “activity, negative = inhibition” value read?
Answer: inactive: 15.7%

Question: With `CC(=O)NC1=C(Nc2ccc(N(C)C)cc2)C(=O)c2ccccc2C1=O` as the molecule, how does the “activity, negative = inhibition” value read?
Answer: inactive: -28.3%

Question: For `CC(C)(C)N1C(=O)[C@H]2[C@@H](c3ccc(Br)cc3)N3C(=O)N(c4cccc(Cl)c4)C(=O)[C@@]3(C)[C@H]2C1=O`, which Potency is on record?
Answer: inconclusive: 25.1 µM [inhibitor, single point]

Question: With `Cc1c(Cl)cccc1NC(=S)NN1CCOCC1` as the molecule, how does the “activity, negative = inhibition” value read?
Answer: inactive: 1.63%

Question: For `COc1ccc(S(=O)(=O)N2CCOCC2)cc1NC(=O)CSc1nnc(N)s1`, which Potency is on record?
Answer: inconclusive: 0.794 µM [inhibitor, full curve]

Question: With `Cc1cccc(C)c1NC(=O)C(NC(=O)CN1C(=O)c2ccccc2C1=O)c1ccccc1` (stereo not given) as the molecule, how does the Potency read?
Answer: inconclusive: 2.51 µM [inhibitor, partial curve]

Question: Which “activity, negative = inhibition” value does the source give for `COc1ccccc1-c1cnc(C(O)c2c(C)cc(C)cc2C)[nH]1` (stereo not given) here?
Answer: inactive: 28%

Question: For `CC(OC(=O)c1cc(Br)ccc1O)C(=O)NC1(C#N)CCCCC1` (stereo not given), which Potency is on record?
Answer: inconclusive: 35.5 µM [inhibitor, single point]

Question: For `CC(=O)Nc1ccc(S(=O)(=O)c2cc(O)ccc2O)cc1`, which “activity, negative = inhibition” value is on record?
Answer: inactive: 22.1%

Question: With `Cc1cccc(C(=O)N=c2c(C#N)cc3c(=O)n4cccc(C)c4nc3n2Cc2ccco2)c1` as the molecule, how does the Potency read?
Answer: inconclusive: 11.2 µM [inhibitor, single point]

Question: With `O=C(NCc1ccco1)c1ccc(=O)oc1` as the molecule, how does the Potency read?
Answer: inconclusive: 2.82 µM [inhibitor, full curve, poor fit]

Question: Which Potency does the source give for `C[C@@H]1CCCCO[C@H](CN(C)Cc2ccccc2)[C@@H](C)CN([C@H](C)CO)C(=O)c2cc(NS(=O)(=O)c3ccc(Cl)cc3)ccc2O1` here?
Answer: inconclusive: 22.4 µM [inhibitor, single point]

Question: Which Potency does the source give for `COc1ccccc1N1CCN(C(=O)c2sc3ncnc(N4CCN(c5ccccn5)CC4)c3c2C)CC1` here?
Answer: inconclusive: 11.2 µM [inhibitor, partial curve, poor fit]

Question: Which “activity, negative = inhibition” value does the source give for `O=C(Nc1ccc2nc(-c3ccc4nc[nH]c4c3)[nH]c2c1)c1cccs1` here?
Answer: inactive: 2.45%

Question: For `Clc1ccc(CSCCc2ccncc2)cc1`, which “activity, negative = inhibition” value is on record?
Answer: inactive: -2.6%

Question: With `CN(C)c1ccc(/C=C/c2ccc3ccccc3[n+]2C)cc1` as the molecule, how does the Potency read?
Answer: active: 2.51 µM and active: 2.24 µM

Question: Which Potency does the source give for `O=C(Nc1ccc2oc(-c3ccccc3F)nc2c1)c1ccccc1Cl` here?
Answer: inconclusive: 35.5 µM [inhibitor, single point]
